# Reference: PubChem BioAssay AID720707 (National Center for Advancing Translational Sciences (NCATS), 2013)
# In all, about 360,000 compounds went through this assay and about 270 (0.075%) were called active. Inconclusive results, whose numbers are uncertain, are shown with a selection of clear calls. Calls follow the shape of the dose curve; as a rule, active = well fitted activation curve with a large enough effect; inconclusive = small, poorly fitted or top-dose-only effect; inactive = no such curve, though single readings can be large or run the other way. Potencies of inconclusive entries are left out as doubtful fits.
# Target: Rap guanine nucleotide exchange factor 3 (Homo sapiens) (UniProt O95398)
# Test: qHTS for Agonist of cAMP-regulated guanine nucleotide exchange factor 3 (EPAC1): primary screen; also: nearly all actives have a fitted effect of over 60% in size
# Conditions: biochemical assay; activation: at 154 µM (top of the series), 100% = response to 6.5 mM cAMP
# Method in brief: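 EPAC1 100 nM, Rap1B–BODIPY-GDP 250 nM, unlabeled GDP 50 uM; compound titration; 5 min RT; kinetic read ex480/em540 at 5-min intervals ×30 min; data normalized to 6.5 mM cAMP agonist control.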
# Potency is read from the fitted curve at half-maximal effect; tags tell the direction and shape of the fitted curve.
# Sequence of UniProt O95398 (O95398 whole entry, looked up): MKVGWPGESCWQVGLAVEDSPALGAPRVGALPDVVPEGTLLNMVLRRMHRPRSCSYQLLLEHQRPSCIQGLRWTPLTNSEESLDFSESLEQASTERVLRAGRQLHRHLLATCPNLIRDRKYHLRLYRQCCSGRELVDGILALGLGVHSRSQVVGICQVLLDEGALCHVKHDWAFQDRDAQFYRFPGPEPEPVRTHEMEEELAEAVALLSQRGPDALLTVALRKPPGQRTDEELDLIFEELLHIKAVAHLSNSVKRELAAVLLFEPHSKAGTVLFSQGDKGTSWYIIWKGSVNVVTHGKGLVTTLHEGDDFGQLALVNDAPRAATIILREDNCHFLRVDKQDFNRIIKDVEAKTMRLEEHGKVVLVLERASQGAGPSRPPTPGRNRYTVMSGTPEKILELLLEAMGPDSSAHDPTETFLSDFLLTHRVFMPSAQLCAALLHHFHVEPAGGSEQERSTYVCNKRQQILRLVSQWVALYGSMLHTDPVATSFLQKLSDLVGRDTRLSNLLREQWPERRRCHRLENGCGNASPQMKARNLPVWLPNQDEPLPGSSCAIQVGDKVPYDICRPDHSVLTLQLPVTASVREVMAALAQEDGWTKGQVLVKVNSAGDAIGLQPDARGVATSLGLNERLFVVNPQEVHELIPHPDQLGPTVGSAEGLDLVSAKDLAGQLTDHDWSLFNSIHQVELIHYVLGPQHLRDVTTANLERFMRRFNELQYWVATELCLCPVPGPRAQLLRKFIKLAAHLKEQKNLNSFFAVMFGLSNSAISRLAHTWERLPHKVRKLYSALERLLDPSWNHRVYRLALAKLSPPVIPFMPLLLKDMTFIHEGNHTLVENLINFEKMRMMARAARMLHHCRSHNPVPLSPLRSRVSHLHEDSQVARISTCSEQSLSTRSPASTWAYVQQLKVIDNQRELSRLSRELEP
SMILES,Potency,activation
Cc1ccc(Oc2ccccc2NC(=O)CSCC(=O)Nc2cc(C)on2)cc1,active: 112 µM,
CS(=O)(=O)c1cccc(C(=O)OCC(=O)c2ccc3c(c2)OCCO3)c1,"inconclusive [activator, single point]",
CN(C)S(=O)(=O)c1ccc(C(=O)NCCOc2ccccc2)cc1,inactive,
NC(=O)C[n+]1cccc2ccccc21,"inconclusive [activator, single point]",
Cc1ccc(-c2cc(C(=O)Nc3ccncc3)c3ccccc3n2)cc1,"inconclusive [activator, partial curve, poor fit]",
O=C(CCCN=C1NS(=O)(=O)c2ccccc21)OCc1ccccc1,"inconclusive [activator, partial curve]",
Cc1ccccc1C(=O)N=c1ccn(-c2nc3ccccc3nc2NS(=O)(=O)c2ccccc2)cc1,"inconclusive [activator, single point]",
COc1ccc(C(CNC(=O)c2cccc(S(=O)(=O)Nc3ccc(C)cc3)c2)N2CCOCC2)cc1 (stereo unspecified),"inconclusive [activator, single point]",
CN1CCN(c2ccc(S(=O)(=O)N3CCCCC3)cc2NC(=O)COc2ccc(F)cc2)CC1,"inconclusive [activator, partial curve]",
CCn1c2ccccc2c2cc(/C(C)=N/O)ccc21,"inconclusive [activator, full curve]",
O=C(NC1CC1)c1cccc2c1C(=O)c1ccc(N3CCC(N4CCCCC4)CC3)cc1S2(=O)=O,"inconclusive [activator, partial curve]",
CC1=Nc2ccccc2/C1=C\c1nc(-c2ccc(F)cc2)oc1O,active: 89.1 µM,
N#CC(C#N)=C1C=C2C=C(N3CCCCCC3)CCC2CC1 (stereo unspecified),inactive,
O=C(NCC(F)(F)F)C1C(=O)Nc2ccccc2C(=O)N1Cc1ccccc1 (stereo unspecified),inactive,
N=C1/C(=C\c2coc3ccc(O)cc3c2=O)C(=O)N=C2SC=CN12,active: 89.1 µM,
N#CC1=C2C=Cc3ccccc3N2CCCC1=O,inactive,
S=c1[nH]c(-c2ccccc2)cn1/N=C/c1ccc(Br)cc1,inactive,
CS(=O)(=O)N1CCN(c2ccccc2NC(=S)NC(=O)c2cccs2)CC1,inactive,
COc1ccc(-n2c(O)c(/C=N/NS(=O)(=O)c3cc(C)ccc3C)c3ccccc3c2=O)cc1OC,"inconclusive [activator, single point]",
CC(C)C(=O)Nc1ccc([N+](=O)[O-])c(C(F)(F)F)c1,inactive,
COc1ccc(S(=O)(=O)N2CCOC23CCN(S(=O)(=O)c2cc(F)ccc2F)CC3)cc1,"inconclusive [activator, single point]",
COc1ccccc1C(=O)COC(=O)Cc1c[nH]c2ccccc12,"inconclusive [activator, partial curve]",
CCOc1ccc(S(=O)(=O)N2CN(c3cccc(C(C)=O)c3)c3nc4ccccc4nc32)cc1,inactive,
COc1ccccc1N1N=C(C(=O)c2ccccc2)C2C(=O)N(c3ccc(Br)cc3)C(=O)C21 (stereo unspecified),"inconclusive [activator, single point]",

SMILES,Potency,activation
CCCc1cc(-c2n[nH]c(=S)n2C(C)c2ccccc2)cs1 (stereo unspecified),"inconclusive [activator, partial curve]",
Fc1cccc(COc2ccccc2CNc2ccccc2)c1,"inconclusive [activator, partial curve, poor fit]",
CC(NC(=O)COC(=O)C1CCN(c2ccc(C(F)(F)F)cn2)CC1)c1ccc(Br)cc1 (stereo unspecified),"inconclusive [activator, full curve]",
CCc1ccc(CN2CCCC(C(=O)Nc3ccccc3-c3ccc(OC)cc3)C2)o1 (stereo unspecified),inactive,
C#CCOCCOCCOCCNc1nc(N2CCN(C(=O)CCCCCCCCCCNC(=O)[C@H](CCCCN)n3cc(C)nn3)CC2)nc(N2CCN(C(=O)CCCCCCCCCCNC(=O)[C@H](CO)n3cc(CCCSC)nn3)CC2)n1,"inconclusive [activator, single point]",
Cc1nc2c(C)cccn2c(=O)c1NC(=O)COc1ccccc1,,inconclusive: 32.8% [activator]
CCN1C(=O)c2cccc3c(N)ccc(c23)C1=O,active: 100 µM,
O=C(COC(=O)c1ccc(F)c(S(=O)(=O)N2CCOCC2)c1)c1ccc(Br)cc1,"inconclusive [activator, full curve]",
c1ccc(-c2cn3nc(-c4ccccc4)c(-c4ccccc4)nc3n2)cc1,"inconclusive [activator, partial curve]",
CCN(CC)c1ccc2cc(NC(=O)CCC(=O)O)c(=O)oc2c1,"inconclusive [activator, partial curve]",
Cc1ccc(S(=O)(=O)SC/C=C/CSS(=O)(=O)c2ccc(C)cc2)cc1,inactive,
O=C(/C=C/c1ccccc1)c1c[nH]c2ccccc12,inactive,
CC[n+]1c(/C=C/C=C/N(C(C)=O)c2ccccc2)sc2ccccc21,"inconclusive [activator, full curve]",
COC(=O)C1CCN(c2nc3ccccc3nc2C(C#N)C(=O)NCCc2ccccc2)CC1 (stereo unspecified),"inconclusive [activator, single point]",
O=C(O)c1ccc(-n2cccc2/C=C2/NC(=O)N(c3cccc(Cl)c3)C2=O)cc1,"inconclusive [activator, full curve]",
Cc1ccc[n+](-c2nc([O-])sc2C=O)c1,"inconclusive [activator, partial curve]",
Cc1cc(OCC(=O)Nc2ccc3c(c2)OCCO3)ccc1Cl,"inconclusive [activator, partial curve]",
COCCN(C(=O)c1cc2c(s1)CCCCC2)c1c(N)n(Cc2ccccc2)c(=O)[nH]c1=O,"inconclusive [activator, partial curve, poor fit]",
O=C1C=CC(=O)c2c(O)c(N3CCN(CCOCCO)CC3)c(Br)c(O)c21,inactive,
Cc1ccc(C)c(N2CCN(C(=O)c3cc4ccccn4n3)CC2)c1,"inconclusive [activator, single point]",
CCOC(=O)c1oc2ccc(S(=O)(=O)n3nc(-c4cc(OC)c(OC)c(OC)c4)cc3N)cc2c1C,inactive,
O=C(NC12CC3CC(CC(C3)C1)C2)c1ccc(S(=O)(=O)N2CCOCC2)cc1,inactive,
CCCCCOc1ccc(C(=O)NCC2(c3ccccc3)CCOCC2)cc1,"inconclusive [activator, partial curve]",
O=C1/C(=C/c2cccs2)Sc2ccccc21,inactive,

SMILES,Potency,activation
Cc1ccc(S(=O)(=O)CCc2ccccn2)cc1,inactive,
Cc1cc(N2CCCC2)nc2ccc(NC(=S)NCCCN3CCC(C)CC3)cc12,inactive,
Cc1ccc(CNC(=O)c2cccc3c2C(=O)c2ccc(N4CCC(C)CC4)cc2S3(=O)=O)cc1,active: 89.1 µM,
Oc1ccc2nnc3c(Br)cnn3c2c1,"inconclusive [activator, full curve]",
CCOC(=O)/C(C#N)=C/c1ccc(N2CCN(Cc3ccccc3)CC2)cc1,active: 89.1 µM,
CCCCn1c(N)c(N(CCC(C)C)C(=O)Cc2ccc(S(=O)(=O)N3CCOCC3)s2)c(=O)[nH]c1=O,"inconclusive [activator, single point]",
O=C(CN1CCN(c2cccc(C(F)(F)F)c2)CC1)N(C1CCCC1)C1CCS(=O)(=O)C1 (stereo unspecified),inactive,
COc1cc(S(=O)(=O)Nc2ccccc2C)ccc1Cl,inactive,
COc1cc(C(=O)N(C)CCOc2ccccc2)ccc1OCC(=O)Nc1cccc(C(F)(F)F)c1,"inconclusive [activator, full curve, poor fit]",
O=Nc1c(O)n(Cc2ccc(Cl)cc2Cl)c2ccccc12,"inconclusive [activator, partial curve]",
Cc1ccccc1NC(=O)CSc1nc(=O)n(CCN2CCOCC2)c2c1CCCC2,"inconclusive [activator, partial curve]",
CCCCC(CC)C(=O)Nc1ccc(Nc2ccccc2)cc1 (stereo unspecified),active: 63.1 µM,
CCCS/C(N)=N/N=C/c1cc(C)ccc1O,inactive,
COc1ccc(CC(=O)Nc2ccc(C(N)=O)cc2)cc1,inactive,
CCOCCCn1c(=N)c(S(=O)(=O)c2ccccc2)cc2c(=O)n3cc(C)ccc3nc21,"inconclusive [activator, partial curve]",
Cc1ccc(S(=O)(=O)CCC(=O)Nc2sccc2C#N)cc1,"inconclusive [activator, single point]",
CCCCn1c(SCC(=O)NCCOC)nc2ccc(N3CCOCC3)cc2c1=O,inactive,
CCN(CC)c1ccc(/C=C(\C#N)c2ccccn2)cc1,"inconclusive [activator, partial curve]",
COc1ccc(CNCCc2ccc([N+](=O)[O-])cc2)c(OC)c1OC,inactive,
CC1CCN(c2ccc3c(c2)S(=O)(=O)c2ccccc2C3=O)CC1,active: 89.1 µM,
CCOC(=O)C1=C(O)/C(=C/c2cn(CC(=O)N3CCCC3)c3ccccc23)SC1=Nc1ccccc1,inactive,
CCOc1ccc(N/C=C\C(=O)c2ccc3c(c2)OCO3)cc1,"inconclusive [activator, partial curve]",
C(=N\N1CCN(C(c2ccccc2)c2ccccc2)CC1)/c1ccc2c(c1)OCO2,"inconclusive [activator, single point]",
